Measured values published in PubChem BioAssay AID588579 (National Center for Advancing Translational Sciences (NCATS), 2011).
The whole screen tested about 400,000 compounds, of which about 2,200 (0.55%) were called active. Inconclusive results, whose numbers are uncertain, are shown with a selection of clear calls. Calls follow the shape of the dose curve; as a rule, active = well fitted inhibition curve with a large enough effect; inconclusive = small, poorly fitted or top-dose-only effect, or another doubt; inactive = no such curve, though single readings can be large or run the other way. Potencies of inconclusive entries are doubtful fits and often do not repeat.

target: DNA polymerase kappa (Homo sapiens) (UniProt Q9UBT6); assay: qHTS for Inhibitors of Polymerase Kappa; conditions: purified Pol kappa, fluorescent DNA synthesis assay, 10 min; series mostly up to 107 µM; activity, negative = inhibition: at the top concentration
Chain of UniProt Q9UBT6 (Q9UBT6 whole entry, looked up): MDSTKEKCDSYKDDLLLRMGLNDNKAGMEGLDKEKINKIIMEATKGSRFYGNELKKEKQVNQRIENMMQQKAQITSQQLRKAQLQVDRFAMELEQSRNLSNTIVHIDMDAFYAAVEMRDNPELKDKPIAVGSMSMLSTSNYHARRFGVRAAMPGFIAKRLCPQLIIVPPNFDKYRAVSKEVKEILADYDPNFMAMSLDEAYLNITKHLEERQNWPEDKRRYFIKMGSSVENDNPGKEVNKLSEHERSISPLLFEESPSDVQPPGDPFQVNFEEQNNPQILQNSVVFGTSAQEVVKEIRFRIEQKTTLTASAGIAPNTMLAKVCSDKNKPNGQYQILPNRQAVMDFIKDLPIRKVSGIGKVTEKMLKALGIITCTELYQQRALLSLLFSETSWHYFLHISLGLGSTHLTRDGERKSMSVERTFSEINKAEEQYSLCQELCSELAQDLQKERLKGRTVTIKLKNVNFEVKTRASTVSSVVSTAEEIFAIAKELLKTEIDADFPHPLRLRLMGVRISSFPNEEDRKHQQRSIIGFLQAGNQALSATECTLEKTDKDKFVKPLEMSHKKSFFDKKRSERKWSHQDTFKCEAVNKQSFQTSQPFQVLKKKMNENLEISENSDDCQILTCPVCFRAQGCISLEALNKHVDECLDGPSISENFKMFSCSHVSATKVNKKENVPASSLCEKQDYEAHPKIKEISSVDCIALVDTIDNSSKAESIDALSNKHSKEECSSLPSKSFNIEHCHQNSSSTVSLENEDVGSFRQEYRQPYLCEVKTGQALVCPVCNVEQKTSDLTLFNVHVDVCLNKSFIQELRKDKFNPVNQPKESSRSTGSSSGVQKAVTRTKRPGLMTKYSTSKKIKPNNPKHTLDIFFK
Method in brief: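 Readout: fluorescence, taken kinetically at 0 and 10 min. Conditions: 10 nM Pol kappa, 15 min RT compound preincubation, 50 nM substrate final. Controls: enzyme-free buffer wells.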
% is scaled to controls: 0 for no effect and ±100 for the full control effect; potency is read from the fitted curve at half-maximal effect; tags tell the direction and shape of the fitted curve.

SMILES	Potency	activity, negative = inhibition
O=C(COC(=O)C1CCCC1)Nc1ncc(Cl)cc1Cl	inconclusive: 70.8 µM [inhibitor, partial curve, poor fit]	
O=C(CCSCc1ccc(Cl)cc1)N1CCN(c2ccccc2F)CC1		inactive: -7.05% [at 60.1 µM]
O=[N+]([O-])c1ccc2cc[nH]c2c1	inconclusive: 89.1 µM [inhibitor, single point]	
COCCn1c(=O)c(CCc2ccccc2)nc2cnc(N(C)C)nc21		inactive: -1.97% [at 60.1 µM]
Cc1ccc2c(c1)CCCN2CC(=O)N(C)c1c(N)n(Cc2ccccc2)c(=O)[nH]c1=O	inconclusive: 89.1 µM [inhibitor, single point]	
COc1ccc(C2=Nn3c(nnc3-c3ccccc3F)SC2)cc1OC1CCOC1 (centres undefined)	inconclusive: 44.7 µM [inhibitor, partial curve]	
CC1(C)C(=O)Nc2ccccc2N1C(=O)CSc1nc(-c2ccccc2)cs1	inconclusive: 89.1 µM [inhibitor, single point]	
O=C1CC(c2ccco2)CC2=C1C(c1ccccc1)n1nc(C(F)(F)F)nc1N2 (centres undefined)	inconclusive: 100 µM [inhibitor, single point]	
O=C(NN1C(=O)C2C3C=CC(C3)C2C1=O)c1cccc(Cl)c1 (centres undefined)	inconclusive: 89.1 µM [inhibitor, single point]	
CCc1ccc(NC(=O)Cn2c(=O)n(Cc3nc(C)no3)c(=O)c3cc4c(cc32)OCO4)cc1		inactive: 7.83%
Cc1ccc(CSc2oc(-c3ccco3)nc2S(=O)(=O)c2ccc(Br)cc2)cc1	inconclusive: 56.2 µM [inhibitor, partial curve, poor fit]	
CCOc1ccc(NC(=O)CCS(=O)(=O)c2ccc(Br)s2)cc1		inactive: -27.8%
Cc1nc([N+](=O)[O-])c(Br)n1CC(=O)c1cccc([N+](=O)[O-])c1	inconclusive: 89.1 µM [inhibitor, single point]	
Cc1ccc([N+](=O)[O-])cc1-c1ccc(/C=C(\C#N)c2[nH]nc(N)c2C#N)o1	inconclusive: 89.1 µM [inhibitor, single point]	
O=[N+]([O-])c1ccc2[nH]c(O)c(N=NC(=S)Nc3cccnc3)c2c1	active: 89.1 µM	
Cc1ccc(/C=C/C(=O)N2CCN(Cc3ccccc3)CC2)o1		inactive: -11.2%
CSc1ccc(/C=C2\C(=N)N3N=C(CC(=O)N4CCOCC4)SC3=NC2=O)cc1	inconclusive: 100 µM [inhibitor, single point]	
COC(=O)Nc1ccc(OC)c(OC)c1	inconclusive: 39.8 µM [inhibitor, single point]	
CC(=O)N1CCC(=NNC(=O)CSc2cc(C)c(Br)cc2C)CC1		inactive: -1.44%
